Results published in PubChem BioAssay AID1768 (National Center for Advancing Translational Sciences (NCATS), 2009).
The campaign covered roughly 270,000 compounds. About 620 (0.23%) were called active. This list was built around the results that the source calls inconclusive (neither active nor inactive); the mix of calls is not that of the screen. Calls follow the shape of the dose curve; as a rule, active = well fitted inhibition curve with a large enough effect in the polarisation, with a control signal flat (not every such curve was filed as active); inconclusive = small, poorly fitted or top-dose-only effect, or effect the other way, or a change in a side signal; inactive = no such curve, though single readings can be large or run the other way; the % refers to the polarisation. Potencies beside an inconclusive call are fits to weak or partial responses and may not hold up. A note “side channel” means that the fit belongs to a control or component signal, not to the main read-out.

Target: Menin (Homo sapiens) (UniProt O00255)
Experiment: qHTS Assay for Inhibitors Targeting the Menin-MLL Interaction in MLL Related Leukemias: Competition With Texas Red Labeled MLL-derived Mutant Peptide
Settings: fluorescence polarization; series mostly up to 61.6 µM
Potency is read from the fitted curve at half-maximal effect; tags tell the direction and shape of the fitted curve or compound fluorescence and quenching.

Sequence of UniProt O00255 (O00255 whole entry, looked up): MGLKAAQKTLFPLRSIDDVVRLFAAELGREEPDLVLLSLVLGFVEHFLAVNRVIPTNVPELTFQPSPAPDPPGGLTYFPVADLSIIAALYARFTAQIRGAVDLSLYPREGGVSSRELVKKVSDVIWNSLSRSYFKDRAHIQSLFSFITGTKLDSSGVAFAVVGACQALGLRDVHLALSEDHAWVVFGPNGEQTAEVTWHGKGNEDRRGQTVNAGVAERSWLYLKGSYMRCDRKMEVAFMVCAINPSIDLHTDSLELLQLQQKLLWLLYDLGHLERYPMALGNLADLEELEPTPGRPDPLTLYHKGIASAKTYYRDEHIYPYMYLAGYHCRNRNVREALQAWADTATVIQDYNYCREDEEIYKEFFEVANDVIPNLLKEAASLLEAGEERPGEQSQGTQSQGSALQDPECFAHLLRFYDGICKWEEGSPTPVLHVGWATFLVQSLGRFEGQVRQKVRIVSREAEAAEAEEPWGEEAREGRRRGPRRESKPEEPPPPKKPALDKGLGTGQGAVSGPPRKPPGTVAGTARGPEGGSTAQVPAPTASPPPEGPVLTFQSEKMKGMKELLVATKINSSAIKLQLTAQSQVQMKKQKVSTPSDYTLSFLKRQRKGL

Potency, inactive:
C=C[C@@H]1[C@@H](C)[C@H](C)C(=O)C([C@H](O)C(C)C)[C@@H]1C (stereo partly specified)
COC(=O)C1=C[C@@H](C(=O)OC)[C@@H]2C3=C(C(=O)[C@]2(C)NC(=O)c2ccccc2)[C@H](C)[C@@H]2C(=O)NC(=O)[C@@H]2[C@@H]3C1
CCCn1c(N2CCN(C(=O)Nc3ccc(Cl)cc3)CC2)nc2ccccc21
O=C(O)CCN1C(=O)c2ccc(NC(=O)CSc3ccc(Cl)cc3)cc2C1=O
O=C(O)c1ccccc1SCC(=O)N1c2ccccc2Sc2ccccc21

Potency, inconclusive:
CCSc1nnc(NC(=O)C(CC)(C(F)(F)F)C(F)(F)F)s1 11.2 µM [quencher, side channel, partial curve]
Oc1ccc(Br)cc1-c1cc(-c2ccccc2F)[nH]n1 10 µM [quencher, side channel, partial curve]
Cc1ccc(Nc2nnc(SC/C(O)=C(\C#N)c3nc4ccccc4[nH]3)s2)c(C)c1 14.1 µM [quencher, side channel, partial curve]
CCOc1ccc(NC(=O)c2ccc(NC(=S)NC3CC3)cc2)cc1 39.8 µM [fluorescent, side channel, single point]
Cc1ccc(C)c(OCC(O)CN2CCC(Cc3ccccc3)CC2)c1 (stereo unspecified) 11.2 µM [fluorescent, side channel, partial curve]
COc1cc(NS(=O)(=O)c2ccc(NC(=S)NC(=O)c3sc4cc(F)ccc4c3Cl)cc2)nc(OC)n1 39.8 µM [quencher, side channel, single point]
CN(C)S(=O)(=O)c1cccc(NC(=O)c2cc(-c3cccs3)nc3ccccc23)c1 14.1 µM [inhibitor, single point]
Cc1ccc(/C=C2/CNC/C(=C\c3ccc(C)cc3)C2=O)cc1 25.1 µM [fluorescent, side channel, single point]
O=C(NC(=S)Nc1ccc(S(=O)(=O)Nc2nccs2)cc1)c1ccc(Br)o1 39.8 µM [quencher, single point]
CCCC[C@@H](CN[C@H](C)CNC)NCC1CCC(C(C)(C)C)CC1 (stereo partly specified) 12.6 µM [inhibitor, partial curve]
CN(CCO)CCOCCOc1cccc2ccccc12 39.8 µM [fluorescent, side channel, single point]
O=C(N/N=C/c1ccc2cccc(OCc3ccccc3)c2n1)c1ccc(Br)cc1 7.08 µM [inhibitor, single point]
Cc1cc(C)c(C#N)c(N2CCN(Cc3ccc4c(c3)OCO4)CC2)n1 28.2 µM [fluorescent, side channel, single point]
Cc1cc2cc(CNC(=O)c3ccc(S(=O)(=O)N(C)C)cc3)ccc2n1C 35.5 µM [fluorescent, single point]
Cc1cc2oc(=O)c(CC(=O)O)c(C)c2c2occ(C(C)(C)C)c12 28.2 µM [inhibitor, single point]
Cc1ccc(C)c(/C=C/C(=O)c2ccccc(=O)c2O)c1 8.91 µM [quencher, side channel, partial curve]
CC[C@H](C)[C@H](NC(=O)OCc1ccccc1)C(=O)Nc1ccc(NC(C)=O)cc1 17.8 µM [fluorescent, side channel, partial curve]
Cc1ccc(CNC(=O)c2nnn(CC(=O)Nc3cc(C)cc(C)c3)c2N)cc1 14.1 µM [fluorescent, side channel, partial curve]
O=C(Nc1ncc(Cc2cccc(C(F)(F)F)c2)s1)c1ccc(-c2cccc([N+](=O)[O-])c2)o1 3.55 µM [quencher, side channel, partial curve]
O=C(NNC(=O)c1ccc(SCC2CCCO2)c([N+](=O)[O-])c1)c1ccc(Cl)c([N+](=O)[O-])c1 (stereo unspecified) 28.2 µM [quencher, side channel, partial curve]
COc1ccc(NC(=O)CNC(=O)Cn2cnc3sc4c(c3c2=O)CCCC4)cc1OC 3.98 µM [quencher, side channel, full curve]
O=C(NCCc1ccccc1)C1CCCN(c2nc3ccccc3s2)C1 (stereo unspecified) 35.5 µM [fluorescent, side channel, single point]
O=C(Nc1nc2ccccc2[nH]1)c1cc2ccccc2o1 28.2 µM [quencher, side channel, partial curve]
Cc1ccc(C)c(Cn2c(CN(C)Cc3ccccc3)nc3c2c(=O)n(C)c(=O)n3C)c1 2.82 µM [fluorescent, side channel, partial curve]
Cc1cc2ncn(/N=C/c3ccc([N+](=O)[O-])s3)c2cc1C 3.55 µM [quencher, side channel, single point]
Clc1ccc(OCCSc2ncccn2)c(Br)c1 20 µM [quencher, side channel, partial curve]
CC(C)CC(=O)NC(=S)Nc1cccc2nsnc12 11.2 µM [quencher, side channel, partial curve]
O=C(CNC(=O)c1ccco1)Nc1ccc(Br)cc1 1.26 µM [inhibitor, full curve]
CCOC(=O)C1(Cc2ccc(OC)cc2)CCN(C(=O)c2ccoc2C)CC1 3.55 µM [inhibitor, partial curve]
Nc1c(C(=O)Nc2ccc(Br)cc2)sc2nc(-c3ccco3)ccc12 2.51 µM [quencher, side channel, full curve]
COc1cc(/C=C2\C(=N)N3N=CSC3=NC2=O)ccc1OS(=O)(=O)c1ccccc1[N+](=O)[O-] 15.8 µM [quencher, side channel, single point]
